From PubChem BioAssay AID686971 (National Center for Advancing Translational Sciences (NCATS), 2013)
About 7,500 (2.1%) of roughly 360,000 compounds were called active. Inconclusive means that the source gave no clear call. Such entries were picked first, then a sample of the others. Calls follow the shape of the dose curve; as a rule, active = well fitted cell-killing curve with a large enough effect; inconclusive = small, poorly fitted or top-dose-only effect, or effect the other way, or another doubt; inactive = no such curve, though single readings can be large or run the other way. No potency is given beside an inconclusive call; the fits are too rough.
Potency is read from the fitted curve at half-maximal effect; tags tell the direction and shape of the fitted curve.

Assay: qHTS for induction of synthetic lethality in tumor cells producing 2HG: qHTS for the HT-1080-IDH1KD cell line;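 as to activity, negative = toxicity: 0% = DMSO wells and -100% = cell-free medium wells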
Settings: HT-1080 IDH1 knockdown viability, ATP luminescence, 48 h; activity, negative = toxicity: at 46.1 µM (top of the series) unless noted
In short: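 Using the IDH1-knockdown HT-1080 line run in the same batch and compound series as the NT line, viability after 48 h at 37 °C was determined by CellTiter-Glo luminescence and expressed as % activity.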
In the case of COc1ccc(C(=O)NC(=S)NC(C)(C)C)cc1Br, the Potency is reported as “inactive”. In the case of CCOC(=O)c1c(NC(=O)c2ccc(N3C(=O)[C@@H]4[C@H](C3=O)[C@H]3C=C[C@@H]4C3)cc2)sc2c1CC(C)CC2 (some centres not stated), the Potency is reported as “inactive”. With O=C(Cn1c(-c2ccccc2)noc1=O)Nc1ccc(N2CCCCCC2)cc1 the Potency was inconclusive [cytotoxic, single point]. With COc1ccc(NC(=O)N(Cc2cc3cc(OC)ccc3[nH]c2=O)CC2CCCO2)cc1 (configuration not stated) the Potency was “inactive”. In the case of O=C(c1ccco1)N(CCCN1CCOCC1)c1nc(-c2ccc(Cl)cc2)cs1, the Potency is reported as inconclusive [cytotoxic, single point]. For CC(CCc1ccccc1)NC(=O)CN1CCN(Cc2ccc(Cl)cc2)C1=O (configuration not stated), the Potency was “inactive”. In the case of CC(C)(C)c1cc(CN2CCN(CCO)CC2)cc(C(C)(C)C)c1O, the Potency is reported as inconclusive [cytotoxic, single point]. With CC(=O)c1cccc(NS(=O)(=O)c2cc(-c3cnc(C4CC4)o3)ccc2C)c1 the Potency was active: 23.1 µM. With Cc1cc(/C=C2\SC(=S)N(C)C2=O)c(C)n1-c1ccc(O)cc1 the Potency was inconclusive [cytotoxic, single point]. In the case of CCc1nn(C(CC)C(=O)NCCCN2CC(C)CC(C)C2)c(=O)c2cc3oc(C)cc3n12 (configuration not stated), the Potency is reported as inconclusive [cytotoxic, single point]. In the case of CC1CN(S(=O)(=O)c2cccc(C(=O)NCCc3ccc(S(N)(=O)=O)cc3)c2)CC(C)O1 (configuration not stated), the Potency is reported as “inactive”. With O=C(N[C@@H](Cc1ccccc1)C(=O)OCc1ccccc1)c1ccco1 the Potency was “inactive”. With N=C1/C(=C/c2cccn2CCOc2ccccc2)C(=O)N=C2SC=C(c3ccccc3)N12 the Potency was inconclusive [cytotoxic, single point]. With Cc1cccc(N(C(=O)CCC(=O)Nc2cc(C)on2)C(C(=O)NC2CCCC2)c2ccc(C)o2)c1 (configuration not stated) the Potency was “inactive”. For CC(C)=CCn1c2ccc(NC(=O)NCc3ccc(F)cc3)cc2c(=O)n1C, the Potency was active: 2.31 µM. With N#Cc1c(N)sc2c1CCN(CCc1ccccc1)C2 the Potency was “inactive”. For COc1ccc(OC)c(C(O)c2ncc(-c3cccc4ccccc34)[nH]2)c1 (configuration not stated), the Potency was “inactive”. With CC(=NNC(=S)Nc1ccc(C)cc1)c1ccccn1 the Potency was inconclusive [cytotoxic, full curve]. In the case of CN(C)S(=O)(=O)N1CCN(c2ccc([N+](=O)[O-])c(N3CCOCC3)c2)CC1, the Potency is reported as inconclusive [cytotoxic, partial curve, poor fit]. For C=CC[C@H](CC(=O)N(CCO)Cc1ccccc1)C(=O)N[C@H](COC(=O)[C@@H](CC=C)CC(=O)OC(C)(C)C)c1ccccc1, the Potency was “inactive”. With COC(=O)c1ccc2nc(-c3ccco3)c(Cc3ccc(C)cc3)n2c1 the Potency was inconclusive [cytotoxic, single point]. With O=C(Cn1nnc2c(cnn2-c2ccccc2)c1=O)NCc1cccs1 the Potency was inconclusive [cytotoxic, single point]. In the case of CC[n+]1c(/C=C/Nc2ccccc2)oc2ccccc21, the Potency is reported as inconclusive [cytotoxic, single point]. In the case of CC1CC(N(C(=O)c2ccco2)c2ccccc2)c2ccccc2N1 (configuration not stated), the Potency is reported as inconclusive [cytotoxic, single point]. For COc1ccc(Cl)cc1NC(=O)NCC1CCN(Cc2cc(C)ccc2C)CC1, the Potency was inconclusive [cytotoxic, single point]. In the case of CC1CCCN(CC(=O)Nc2ccc(S(=O)(=O)NC3CCCCC3)cc2)C1 (configuration not stated), the Potency is reported as inconclusive [cytotoxic, single point]. With CC(=O)N1c2ccc(S(=O)(=O)N(C)CC(=O)NCc3ccc(C)cc3)cc2CC1C (configuration not stated) the Potency was “inactive”. For Cc1cccc(Cc2cnc(NC(=O)c3ccc(C)o3)s2)c1, the Potency was inconclusive [cytotoxic, full curve, poor fit]. With COc1ccc(C2c3ccc(O)cc3Oc3ncn(Cc4ccco4)c(=N)c32)cc1OC (configuration not stated) the Potency was inconclusive [cytotoxic, single point]. For O=C(N/N=C/c1cc([N+](=O)[O-])ccc1Cl)c1cnccn1, the Potency was inconclusive [cytotoxic, full curve]. In the case of CC(C)C[C@@H]1O[C@H](CCc2ccccc2)Cc2[nH]c(=S)[nH]c(=O)c21, the Potency is reported as inconclusive [cytotoxic, single point]. In the case of COc1ccc2nc(SC)c(C#N)cc2c1, the Potency is reported as inconclusive [rising, single point]. With O=C(Nc1ccc(Cl)cn1)c1ccccc1-c1ccccc1 the Potency was “inactive”. In the case of COc1cc([N+](=O)[O-])cc(/C=N/NC(=O)C(C)Nc2ccccc2C)c1O (configuration not stated), the Potency is reported as inconclusive [cytotoxic, single point]. With Cc1cccc(NC(=O)COC(=O)c2ccccc2-c2nc3ccccc3s2)c1C the Potency was “inactive”. With CCn1c(=O)cc(SCC(=O)NCCCN2CCN(c3ccc(F)cc3)CC2)c2ccccc21 the Potency was inconclusive [cytotoxic, single point]. In the case of CO[C@@H]1CN(C)C(=O)c2cc(NC(=O)Nc3ccc(Cl)cc3)ccc2OC[C@H](C)NC[C@H]1C, the Potency is reported as inconclusive [cytotoxic, single point]. With COc1ccc(CNc2nc3ccccc3s2)cc1OC the Potency was inconclusive [cytotoxic, single point]. In the case of Cc1cc(C)c2cc(CN(CC3CCCO3)S(=O)(=O)c3ccc4c(c3)OCCO4)c(=O)[nH]c2c1 (configuration not stated), the Potency is reported as “inactive”. For O=C1c2ccccc2NC(c2ccc(-c3cccc([N+](=O)[O-])c3)o2)N1O (configuration not stated), the Potency was inconclusive [cytotoxic, single point]. For CC1(C(=O)NCc2ccc3c(c2)OCO3)CCN1C(=O)Cc1cccc2ccccc12 (configuration not stated), the Potency was “inactive”. With O=C(N/N=C/c1ccc(-c2cccc(C(F)(F)F)c2)o1)c1ccccc1Br the Potency was inconclusive [cytotoxic, single point]. With O=C(NC1CCCC1)C(c1ccsc1)N(C(=O)Cc1cccs1)c1ccccc1 (configuration not stated) the activity, negative = toxicity was inconclusive: -5.89% [cytotoxic]. In the case of Cc1ccc(S(=O)(=O)N2c3ccccc3CC2C)cc1 (configuration not stated), the Potency is reported as inconclusive [cytotoxic, partial curve, poor fit]. For Cc1ccc2c(c1)CCCN2C(=O)C1CCCO1 (configuration not stated), the Potency was inconclusive [cytotoxic, single point]. With Cc1nc(SCc2ccccc2F)c2oc3ccccc3c2n1 the Potency was “inactive”. With COc1ccc(C2c3ccc4ccccc4c3Oc3ncn4nc(Cc5ccccc5)nc4c32)cc1OC (configuration not stated) the Potency was inconclusive [cytotoxic, single point]. In the case of CSCCC(C(=O)Nc1c(C)cccc1C)n1c(COc2ccc(C)cc2)nc2ccccc21 (configuration not stated), the Potency is reported as inconclusive [cytotoxic, single point]. With COc1cccc(CN2CCC(N(CCc3ccccc3)Cc3ccccc3)CC2)c1OC the Potency was inconclusive [cytotoxic, single point]. With CCC(=O)N1c2ccccc2NC2=C(C(=O)CCC2)C1c1ccccc1 (configuration not stated) the activity, negative = toxicity was inconclusive: 6.82%. For Cc1cc(Cl)ccc1NC(=S)NCc1cccs1, the Potency was inconclusive [cytotoxic, partial curve]. In the case of Fc1ccc(F)c(CNc2ncnc3cc(Cl)ccc23)c1, the Potency is reported as inconclusive [cytotoxic, single point]. In the case of Cc1ccc(-c2c[n+](CC(=O)Nc3ccc(C)cc3C)c3n2CCC3)cc1, the Potency is reported as “inactive”. With COc1ccc(NC(=O)Nc2nnc(-c3ccncc3)s2)cc1 the Potency was “inactive”. With OCCSc1c(F)c(SCCO)c(SCCO)c(F)c1SCCO the Potency was “inactive”. With c1ccc(CN2CCN(c3cnc4ccccc4n3)CC2)cc1 the Potency was “inactive”. For Cc1ccc(-c2[nH]c3cc(C(N)=O)ccc3c(=O)c2O)cc1, the Potency was “inactive”. With Cc1ccc(O)c(C(=O)CC(=O)c2ccc(Cl)cc2)c1 the Potency was inconclusive [cytotoxic, single point]. With COc1cc(C(=O)Nc2ccc(C)cc2)c2ccccc2n1 the Potency was active: 0.517 µM. With OC(CON=C1c2ccccc2-c2ccccc21)CN1CCNCC1 (configuration not stated) the Potency was active: 23.1 µM. For O=C(NCCNC(=O)c1ccc(-c2ccc(Cl)c(Cl)c2)o1)c1cnccn1, the Potency was inconclusive [cytotoxic, single point]. With O=Cc1ccccc1OCc1nnsc1Cl the Potency was inconclusive [cytotoxic, single point]. In the case of COc1ccccc1CNC(=O)CNCC1CCCO1 (configuration not stated), the Potency is reported as inconclusive [rising, partial curve]. With CCN1CCN(C(=O)C(C)Nc2cc(Cl)c(OC)cc2OC)CC1 (configuration not stated) the Potency was “inactive”. For O/C(=C\c1nc2ccccc2[nH]1)c1cccs1, the Potency was inconclusive [cytotoxic, single point]. With CCOC(=O)c1c(-c2ccc(-c3ccccc3)cc2)csc1NC(=O)CNCCN(C)C the Potency was active: 9.2 µM. With CC(C)[C@H](NC(=O)c1ccc([N+](=O)[O-])cc1Cl)C(=O)N1CCN(C/C=C/c2ccccc2)CC1 the Potency was inconclusive [cytotoxic, partial curve]. With Cn1cc(C(=O)N/N=C/c2ccc3c(c2)OCO3)c2ccccc21 the Potency was active: 11.6 µM. For CC(C)(C)c1[nH]nc2c1C(c1cccnc1)C(C#N)=C(N)O2 (configuration not stated), the Potency was “inactive”. For COc1ccc(NC(=O)COC(=O)/C=C/C(=O)OCC(=O)Nc2ccc(OC)c(Cl)c2)cc1Cl, the Potency was inconclusive [cytotoxic, single point]. In the case of COC(=O)/C=C1/S/C(=N/NC(=O)c2ccc(Cl)cc2Cl)NC1=O, the Potency is reported as “inactive”. For COC(=O)c1ccccc1NC(=O)Cn1cnc2c(cnn2-c2ccc(C)c(C)c2)c1=O, the Potency was “inactive”.
